Laboratory results reported in article PMC4336329 (PLoS ONE, 2015).
Screen size: about 310,000 compounds; about 2,200 (0.71%) showed an effect of 50% or more. Effects have a minus sign here. The list shows a part of the results.

Molecular target: human ether-à-go-go-related gene (hERG) potassium channel (human, UniProt Q12809)
Assay: primary screen, population patch clamp on CHO cells stably expressing hERG

Sequence of human ether-à-go-go-related gene (hERG) potassium channel (Q12809 whole entry, looked up): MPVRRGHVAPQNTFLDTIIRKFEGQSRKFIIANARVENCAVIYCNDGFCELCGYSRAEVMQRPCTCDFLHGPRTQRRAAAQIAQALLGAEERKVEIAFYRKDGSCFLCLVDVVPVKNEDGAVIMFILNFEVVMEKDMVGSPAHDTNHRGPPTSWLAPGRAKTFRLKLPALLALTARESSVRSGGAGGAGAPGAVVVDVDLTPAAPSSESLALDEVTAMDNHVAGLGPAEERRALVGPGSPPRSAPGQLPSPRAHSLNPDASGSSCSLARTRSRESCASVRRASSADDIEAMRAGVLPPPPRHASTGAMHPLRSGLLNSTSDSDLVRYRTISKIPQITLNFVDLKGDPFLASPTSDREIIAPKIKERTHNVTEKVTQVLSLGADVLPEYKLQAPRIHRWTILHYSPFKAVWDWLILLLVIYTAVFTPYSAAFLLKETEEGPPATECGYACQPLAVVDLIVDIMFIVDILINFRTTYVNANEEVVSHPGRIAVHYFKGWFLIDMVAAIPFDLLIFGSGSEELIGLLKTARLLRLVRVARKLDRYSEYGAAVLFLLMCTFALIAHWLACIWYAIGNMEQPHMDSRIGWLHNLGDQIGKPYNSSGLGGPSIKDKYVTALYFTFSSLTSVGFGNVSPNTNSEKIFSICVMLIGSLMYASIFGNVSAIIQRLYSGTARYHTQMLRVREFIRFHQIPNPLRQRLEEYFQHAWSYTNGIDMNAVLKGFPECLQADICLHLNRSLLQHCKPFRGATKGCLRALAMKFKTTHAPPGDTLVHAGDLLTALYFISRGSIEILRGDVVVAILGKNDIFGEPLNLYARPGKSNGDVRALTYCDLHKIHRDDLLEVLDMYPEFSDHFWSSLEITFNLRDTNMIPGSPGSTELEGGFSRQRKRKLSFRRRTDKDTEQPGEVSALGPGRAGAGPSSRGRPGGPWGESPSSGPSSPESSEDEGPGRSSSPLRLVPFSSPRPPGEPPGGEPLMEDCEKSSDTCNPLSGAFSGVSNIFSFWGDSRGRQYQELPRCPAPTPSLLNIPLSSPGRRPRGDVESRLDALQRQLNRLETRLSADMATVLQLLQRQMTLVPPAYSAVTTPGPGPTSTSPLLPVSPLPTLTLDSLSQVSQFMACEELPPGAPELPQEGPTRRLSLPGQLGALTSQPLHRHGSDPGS

| Compound | hERG current change (%, negative = inhibition) at 1uM [%] |
| --- | --- |
| Cc1ccc2nc(SCC(=O)c3ccc(Cl)cc3)nc(=O)n2c1 | 1.39 |
| Br.c1ccc2c(CCNCc3ccc4c(c3)OCO4)c[nH]c2c1 | 2.83 |
| Cc1cc(C)c(C)c(S(=O)(=O)N2CCN(C(=O)c3ccco3)CC2)c1C | 11.7 |
| O=C(NCCc1ccccc1)c1nc2c(nnn2Cc2ccccc2Cl)c(=O)[nH]1 | -5.71 |
| N/C(Cc1cccc2ccccc12)=N\O | 6.39 |
| COc1cc(Cc2cnc(N)nc2N)cc(OC)c1OC | -4.76 |
| O=C(O)c1cccc(S(=O)(=O)Nc2ccc([N+](=O)[O-])cc2O)c1 | 12.1 |
| Cc1ccccc1C(=O)N1CCC(C(=O)NC(C)c2ccc(-n3ccnc3)cc2)CC1 (stereo not shown) | 9.92 |
| O=C(Nc1cccc2nsnc12)c1ccc2c(c1)OCCO2 | 13.7 |
| CC(C)(C)c1ccc(C(CC(=O)O)NC(=O)c2ccccc2F)cc1 (stereo not shown) | 9.61 |
| COc1ccc(C2=NN(C(=O)CSc3nc4ccccc4s3)C(c3ccc(OC)cc3)C2)cc1 (stereo not shown) | 7.24 |
| Cc1[nH][nH]c(=O)c1N=Nc1ccc(Cl)cc1 | 3.28 |
| Cc1ccc(S(=O)(=O)NC2c3cccc4cccc(c34)C2Sc2nc(C)cc(C)n2)cc1 (stereo not shown) | -3.52 |
| CC(=O)OC1CSC2c3ccccc3C(=O)N2Cc2sccc21 (stereo not shown) | 15.8 |
| Cc1nc2ccc(Br)cn2c1NC(C)(C)C | -5.74 |
| Cc1cc(Nc2ccccc2)n2nc(C)c(-c3ccccc3)c2n1 | 11.1 |
| CCN1C(=O)[C@@H]2[C@H](C1=O)[C@@H]1C[C@H]3C(=O)N(CC)C(=O)[C@H]3[C@@H]3C1=C(C(=O)N1C(=O)OC(=NCC4CC4)[C@]31C)[C@@H]2C | 10.9 |
| COc1ccc(NC(=O)C(CC(=O)O)Cc2ccc(C)cc2)cc1 (stereo not shown) | 11 |
| Cc1cccc(C)c1NS(=O)(=O)c1ccc(-c2ccc(=O)[nH]n2)o1 | 1.65 |
| Cc1ccc(NC(=O)NCCCc2ccccc2)cc1 | 1.8 |
| COc1ccc2oc(C(F)(F)C(F)F)cc(=O)c2c1 | 10.7 |
| NS(=O)(=O)c1ccc(S(=O)(=O)NCCc2ccccc2)cc1 | 10 |

| Compound | hERG current change (%, negative = inhibition) at 1uM [%] |
| --- | --- |
| Cc1c(C(=S)NC(=O)C2CC2)c(=O)n(-c2ccccc2)n1C | 17 |
| O=C(CNCCc1ccccc1)N1CCc2ccccc2C1.O=C(O)C(=O)O | -0.954 |
| Cc1cc(C)n2nc(N)c(N=Nc3ccc(Cl)cc3)c2n1 | 5.64 |
| CC1(C)CC(N(Cc2ccc(F)cc2)C(=O)c2ccc(F)cc2)CCO1 (stereo not shown) | 6.39 |
| CC1CCN(S(=O)(=O)c2ccc(NC(=O)C3CSC4(C)CCC(=O)N34)cc2)CC1 (stereo not shown) | 3.88 |
| CN(C)c1cccc2c(/C=N/O)ccc(N(C)C)c12 | 6.18 |
| Cc1ccc(S(=O)(=O)N2CCN(CC(O)COc3ccccc3)CC2)cc1 (stereo not shown) | 1.6 |
| O=C(CCN1C(=O)C2C3C=CC(C3)C2C1=O)NCc1cccnc1 (stereo not shown) | 3.42 |
| O=C(CN1C(=O)c2ccccc2C1=O)Nc1nccs1 | 10.2 |
| CCCNC(=O)c1ccc(Cn2cc(C(F)(F)F)ccc2=O)cc1 | 4.46 |
| CC(C)(C)c1ccc(OCC(=O)O/N=C(\N)c2ccncc2)cc1 | 6.58 |
| O=C1[C@@H]2Cc3ccccc3CN2C(=O)N1c1cccc(F)c1 | 2.07 |
| Cc1ccc(C)c(NS(=O)(=O)c2cc(C(=O)NCCSC3CCCCC3)ccc2C)c1 | -0.544 |
| O=C(c1cc2ccccc2oc1=O)N1CCCC1 | 14.7 |
| O=C(c1ccc(-c2ccccc2Cl)s1)N1CCOCC1 | 8.25 |
| O=C(NNS(=O)(=O)c1ccc(Cl)cc1)c1cccc(S(=O)(=O)N2CCOCC2)c1 | 18.2 |
| Cc1ccc(C)c(S(=O)(=O)Nc2ccc(O)c(C(=O)O)c2)c1 | 7.6 |
| Cc1cccc(C(=O)N2CCN(Cc3nc4sc5c(c4c(=O)[nH]3)CCCC5)CC2)c1 | -1.96 |
| C=CCNC(=S)N/N=C/c1ccc(-c2cccc([N+](=O)[O-])c2)o1 | 11.9 |
| Cc1ccc(NC(=O)CSc2nc(=O)n(CCCN(C)C)c3c2CCC3)c(C)c1 | -3.12 |
| O=C(N/N=C/c1c(O)n(-c2cccc3ccccc23)c(=O)[nH]c1=O)c1ccncc1 | 10.8 |
| CCOC(=O)c1c(C)n(Cc2ccccc2)c2ccc(OCC(O)Cn3nc(C)cc3C)cc12 (stereo not shown) | 14.1 |

| Compound | hERG current change (%, negative = inhibition) at 1uM [%] |
| --- | --- |
| COc1ccccc1NC(=O)c1cc(Sc2nncn2C)nc2ccccc12 | 13 |
| CCOc1ccc(C(C)NC(=O)Cc2ccccc2)cc1OCC (stereo not shown) | 10.8 |
| COc1cc(C(=O)Nc2sc3c(c2C(=O)NCc2ccco2)CCCC3)cc(OC)c1OC | 12.5 |
| Cc1ccc(CNC(=O)COc2ccccc2-c2ccccc2)cc1 | 6.26 |
| CN(C(=O)CC1C(=O)NCCN1Cc1ccoc1)C1CCOCC1 (stereo not shown) | 12.7 |
| O=c1c2ccccc2nc(-c2ccco2)n1-c1cccnc1 | -1.48 |
| Cc1ccc(C(=O)Cn2nnc(-c3ccccc3-n3cnnn3)n2)cc1 | 2.81 |
| CC(NC(=O)C1CCCN(S(=O)(=O)N2CCOCC2)C1)c1ccccc1 (stereo not shown) | 9.57 |
| O=C(Nc1ccon1)c1ccc(F)c(S(=O)(=O)N2CCCCC2)c1 | 12.5 |
| Cc1c(NC(=O)Nc2cccc(F)c2)c(=O)n(-c2ccccc2)n1C | 4.73 |
| Cc1cc(NC(=O)CCC(=O)N(Cc2cccs2)C(C(=O)NC2CCCC2)c2ccncc2)no1 (stereo not shown) | 10.7 |
| O=C(CCN1C(=O)S/C(=C\c2cccs2)C1=O)NC1=NCCS1 | 2.97 |
| CC(C)(C)C(=O)N1CCc2cc(-c3csc(N)n3)ccc21 | 3.39 |
| Cc1cc(OCC(=O)Nc2nnc(C3CC3)s2)ccc1C(C)C | 11.1 |
| CCN(CC)S(=O)(=O)c1ccc2c(c1)[nH]c(=S)n2CC | 4.13 |
| O=c1[nH]c(=O)n(C2CCCCCC2)c(O)c1C=NC1CCN(Cc2ccccc2)CC1 | -0.59 |
| COc1ccc(S(=O)(=O)N2CCC(C(=O)N3CCCCC3)CC2)cc1Cl | 1.18 |
| CC(C)c1ccc(C2(C)NC(=O)N(CC(=O)NC3(C#N)CCCC3)C2=O)cc1 (stereo not shown) | 3.96 |
| Cc1ccccc1-n1nc2c(c1NC(=O)c1ccc3c(c1)OCO3)CS(=O)(=O)C2 | 3.55 |
| COc1ccc(S(=O)(=O)N(Cc2ccccc2)c2ccccc2C(=O)O)cc1 | 25.4 |
| COc1cc(Br)cc(/C=N/N(CCO)C2=NS(=O)(=O)c3ccccc32)c1OC | 5.63 |
| O=C(C/C=N\OCc1ccc(Cl)cc1Cl)Nc1ccccc1 | 5.24 |

| Compound | hERG current change (%, negative = inhibition) at 1uM [%] |
| --- | --- |
| Cn1nnc(NC(=O)c2cccc(F)c2)n1 | 15.3 |
| CS(=O)(=O)CCC(C(=O)Nc1ccc2c(c1)OCO2)N1Cc2ccccc2C1=O (stereo not shown) | 16.1 |
| CN(C(=O)c1cccc(C#N)c1)c1nnc(C2CCOC2)s1 (stereo not shown) | 2.57 |
| Cc1ccc(CN(C)c2nc(-c3cccnc3)nc3ccccc23)o1 | 10.3 |
| COCCN1Cc2cccc(C(=O)Nc3cccnc3)c2C1=O | 3.55 |
| COc1ccc(-n2c(-c3ccc(Br)cc3)c[n+]3c2SC(C)C3)cc1.[Br-] (stereo not shown) | -26 |
| C=CCC1(CC=C)CCCN1C(=O)CC1C(=O)NCCN1Cc1cccc(OC)c1OC (stereo not shown) | 9.3 |
| CCn1ncc(Br)c1C(=O)N(C)C12CC3CC(CC(C3)C1)C2 | 9.85 |
| CCOc1ccc(-c2cc(C)[n+](CCN3CCOCC3)c(-c3ccc(OCC)cc3)c2)cc1.[O-][Cl+3]([O-])([O-])[O-] | -3.34 |
| CCn1c(COc2ccccc2C)nnc1SCC(=O)N1CCC(C)CC1 | 1.03 |
| Cc1cc(C(=O)NNC(=O)c2cccc(Cl)c2)no1 | 6.46 |
| Cc1ccc(CCNC(=O)CNS(=O)(=O)c2ccc3nc(C)sc3c2)cc1 | 6.59 |
| O=c1c(O[C@H]2O[C@@H](CO)[C@H](O)[C@@H](O)[C@@H]2O)c(-c2ccc(O)cc2)oc2cc(O)cc(O)c12 | 14.1 |
| CCNC(=O)c1c(NC(=O)C2COc3ccccc3O2)sc2c1CCCC2 (stereo not shown) | 12.3 |
| CCN(CC)C(=O)CSc1nc2sc3c(c2c(=O)n1CCCOC)CCC3 | 11.8 |
| CCOC(=O)c1nn(-c2ccccc2C)c(=O)c(C#N)c1C | 19.2 |
| O=C(O)c1sccc1OCc1ccccc1 | 7.68 |
| Oc1ccc(Cl)c(Cl)c1 | 9.77 |
| C/C(=N/NC(=O)c1ccc(C(C)(C)C)cc1)c1cccnc1 | 7.59 |
| CCCN(CCC)C(=O)Cn1c(=O)n(CCCCC(=O)NC2CCCC2)c(=O)c2ccccc21 | 7.05 |
| Cc1cccnc1NC(=S)Nc1ccc(F)cc1F | 15.2 |
| Cc1cc(C)nc(SCc2c(F)cccc2Cl)n1 | 9.77 |
